In paper PMC12136788 one finds binding signal data, which are given here for 14 molecules.

This is one part of the list.

T1: UNK ZnF1-3 (human, UniProt Q9C0B0 31-174)
T1 sequence: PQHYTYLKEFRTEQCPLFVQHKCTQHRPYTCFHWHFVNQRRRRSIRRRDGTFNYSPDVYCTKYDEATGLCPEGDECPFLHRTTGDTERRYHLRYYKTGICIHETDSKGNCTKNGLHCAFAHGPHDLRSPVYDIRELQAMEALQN

B1: 158552673_158555425_400_3pUTR_ENSMUSG00000026596_ENSMUST00000166172|mouse|control|control (ssRNA)
RNA: GGGAGUUCUACAGUCCGACGAUCUUUUCACCUUUAGUGAUACUGAGUGUGUUAUCACCACUUGCCACAAAGUCAUAAAGUGCAACAAAGAGAUUAGGGUCACUCUCAGUGGCUCCCAGCAAGUUCUCCUUGGAGCUCCACCUGCAACAGAGGAUUGAGCAUCA
B2: chr11:100643421:100643422:-_ENSMUSG00000020919_ENSMUST00000004143|mus_hu|FALSE|FALSE (ssRNA)
RNA: GGGAGUUCUACAGUCCGACGAUCCCAAUGCACAAGAGAGAAUUUUGAUGUCAAAUUAGGGUGGCAAGGAGAAAACAAAAAAGAUCCAACUUAGAAACAGAACCAUGAUUCAACAUUUGCAAAAAGCAUCAUCAAUAAGCCUGACAACAGAGGAUUGAGCAUCA
B3: chr15:58009597:58009598:+_ENSG00000255529_ENST00000299638|hu_hu|FALSE|FALSE (ssRNA)
RNA: GGGAGUUCUACAGUCCGACGAUCGUGUCAAGAGGGGACACACAGAGAUUUUGGAGUGCUGGCAAGACCUCCUCUGCAUCUAGUUUGUGAUUACACAGCUGUUGCUUUACCCAUUAAGCUCUGUUUUAAGUACUUAUUUGUAAGCAACAGAGGAUUGAGCAUCA
B4: 3309556_3309676_353_5pUTR_ENSMUSG00000020671_ENSMUST00000021001|mouse|control|control (ssRNA)
RNA: GGGAGUUCUACAGUCCGACGAUCCGGAGCAGGAGACCUUCCGAACGGCCUCGUCGAGGAAGCCCCGACGGUGGCGGCGCCCGUGCCUCCGAGGGGCGGCGCCCGCGGCUCCGCAGCCUCUCCCAGCCGCUCCGCCCGGUUCCGCAACAGAGGAUUGAGCAUCA
B5: chr10:62544570:62544571:+_ENSG00000170312_ENST00000395284|hu_hu|FALSE|FALSE (ssRNA)
RNA: GGGAGUUCUACAGUCCGACGAUCACUGACUAUAUUUGGAUGACGAAGUUCCUUUAAUAGAGAAAUUUCCCGAAUUGCAGUACUAGGAACCCCUUCCUCUUCACUUUCUAGUCUGAUUUUUUUCAUGGCUACCACUUGACCUGUCAACAGAGGAUUGAGCAUCA
B6: chr22:32879901:32879902:+_ENSG00000100225_ENST00000397426|hu_mus|hu_hu_hu_mus_False|1_48 (ssRNA)
RNA: GGGAGUUCUACAGUCCGACGAUCCUCUUCCAUACUCAUGGCAUCCUGAAUUGACUCAGCUUCAACAUUUUGACUAGGCCCUUCCAUACUGUCGUCAGUCCAGGCAUCAAAUGGGGUGGCCUGUCCUUGGGAUGAAUCACUUGGCAACAGAGGAUUGAGCAUCA
B7: chr2:176857102:176857103:-_ENSG00000144320_ENST00000272748|hu_hu|motif|central (ssRNA)
RNA: GGGAGUUCUACAGUCCGACGAUCGGAAUACAGAAUUAAUCUUCCAACCCAUAAUUUUUGUAAUCUCUGAUUUUUUUCCCGGAAUUCUUCCAAUGCUUGAAUUUCCUUAUCUAUACUUUCUAGAACUUCUACAGUUGAAGGUUUCAACAGAGGAUUGAGCAUCA
B8: 109688593_109688713_2749_CDS_ENSG00000148143_ENST00000277225|human|control|control (ssRNA)
RNA: GGGAGUUCUACAGUCCGACGAUCUCCAGAGUCACCAAAGUCUGUGUUUUCACUAUUGUGCUCAGUCCCAUAGAUGGGAGUUUGGGUAUUCAGCAGAGCAGUAUUGGAAACUUGGUGAUCUUUCAAGUUUGUUGAGGAGCCAUACAACAGAGGAUUGAGCAUCA
B9: chr19:41288738:41288739:-_ENSMUSG00000025016_ENSMUST00000025989|mus_mus|motif|central (ssRNA)
RNA: GGGAGUUCUACAGUCCGACGAUCUGGGGGAGGGAGGGGAAGAUAAUCACUUUAGACAUUCAGUUAAAAUGUAAAUUAUCGGAAUCUCCAAAUGUUUAAUAAAAACAAGCAUCUUCUCCAUUUAACACUUCGCUUGCUAACUGUCAACAGAGGAUUGAGCAUCA
B10: chr7:99593754:99593755:+_ENSMUSG00000052572_ENSMUST00000098308|mus_hu|motif|central (ssRNA)
RNA: GGGAGUUCUACAGUCCGACGAUCCUUUAGUGCCUUCUUUCAGUUUAUAAAUGGCAAAAUAGGCAAUCAACAAUCAUAAAGCGGAUCCCAGGUGGAAUCCCCUCCUGUCAGUGAGGUUAGUCCUCCAUACACUUGCAAAUUUUACAACAGAGGAUUGAGCAUCA
B11: chr10:70182154:70182155:-_ENSG00000138346_ENST00000358410|hu_mus|FALSE|FALSE (ssRNA)
RNA: GGGAGUUCUACAGUCCGACGAUCCAGGGCUAGCACUGCGUUGGCCACUCGGUCUGACCCACACUCCAGUUUCCCUGCGUAUGUGAGCUUGUUGCUCAGGGACAUAAUCUUCCUGUUCAUUCGGUAUUGCACGGUCAGCUGCACCAACAGAGGAUUGAGCAUCA
B12: chr17:1756424:1756425:+_ENSG00000132383_ENST00000254719|hu_hu|motif|central (ssRNA)
RNA: GGGAGUUCUACAGUCCGACGAUCAUAGGGCACUGGAUUGCCAAUCUUCACUCCAACUGCUUCAGCUGACUUCAAAACUUCGGAUUCCAUCAAGAUAACUACUCUCCUUCCGUCUUUCAGAGUGUUCACAAUAAAUCUGUGAAUCAACAGAGGAUUGAGCAUCA
B13: chrX:131339419:131339420:-_ENSMUSG00000033436_ENSMUST00000035559|mus_mus|FALSE|FALSE (ssRNA)
RNA: GGGAGUUCUACAGUCCGACGAUCGUUUGAAAGUAUUUUCAGAAUCUCAACCUUGAUUUUUCCACCCCCCUGAGAUAACAAGCGGAAAAAGUUGGCAAUGGAAUUGACAAGCAGGUGCUGGUAGUCAUUAGUAAUAGUCAUGUUCAACAGAGGAUUGAGCAUCA
B14: chr1:6251023:6251024:+_ENSMUSG00000025907_ENSMUST00000027040|mus_mus|motif|central (ssRNA)
RNA: GGGAGUUCUACAGUCCGACGAUCUUCCGCAACUAAGCUUGAAGAAUCUUCUCUGGCUGACUCAAAGGCAGGAGUUUUGGCGGUUUGAUUCUCAAGAUGUUUAACUUUUUCUAAUAACUCUUUCUCAACAAGUUCUCUCUCCACCAACAGAGGAUUGAGCAUCA

The assay has as its target T1, UNK ZnF1-3. Put plainly: nsRBNS (natural sequence RNA bind-n-seq); RBNS binding buffer (assumed for nsRBNS): 25 mM Tris pH 7.5, 150 mM KCl, 3 mM MgCl2, 0.01% Triton X-100, 500 ug/ml BSA, 20 U/ml SUPERase-In, 4 C; UNK is unkempt and MSI1 is Musashi-1; names of the RNAs are library labels; protein concentration not given here; high values mean tight binding.
In the case of B1, the binding signal amounted to 0.747 enrichment R.
The result for B2 reads 2.01 enrichment R; that for B3, 1.12 enrichment R; that for B4, 0.215 enrichment R.
In the case of B5, the binding signal came out at 0.425 enrichment R.
The molecule B6 returned a binding signal of 0.748 enrichment R.
Consider B7, for which the binding signal stood at 0.584 enrichment R.
With B8 the figure was 1.02 enrichment R.
Consider B9, for which the binding signal stood at 1.1 enrichment R.
The molecule B10 showed a binding signal of 0.898 enrichment R.
With B11 the figure was 0.478 enrichment R; with B12, 0.805 enrichment R.
The molecule B13 displayed a binding signal of 1.41 enrichment R.
On to B14, for which the binding signal came to 1.21 enrichment R.
